Reference: the supplement of paper PMC5919970
Where a name gives a salt, the structure may show the parent alone. Whole data set: some 2,000 compounds, median “fractional viability relative to vehicle” near 0.92, cut for the lowest 2% near 0.11. Some of the results follow.

Test system: TYKNU
Experiment: fractional viability relative to vehicle; TYKNU is a high-grade serous ovarian cancer line; higher = less growth inhibition
Conditions: 72 h, genotype: OPA1 knockout (sgOPA1 #2)
Summary of the method: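 Drug treatment lasted 72 h, with cells grown at 37 °C in 5% CO2 in RPMI 1640 supplemented with 10% FBS. Beforehand, TYKNU control cells or their lentiCRISPRv2 knockout derivatives had been seeded at 500 cells per well into drug-stamped 384-well plates carrying a ~2100-compound library at 2 or 10 μM, in duplicate. Viability came from Cell Titer Glo luminescence, with averaged duplicate treatment wells normalised to duplicate control wells in the same plate position.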

SMILES | fractional viability (2uM) | fractional viability (10uM)
Nc1nc(N)c2nc(-c3cccc(O)c3)cnc2n1 | 1.05 | 0.588
CN1CCC(=C2c3ccccc3CC(=O)c3sccc32)CC1 [Ketotifen Fumarate] | 1.03 | 1.06
COc1ccccc1N1CCN(CC(O)COc2cccc3ccccc23)CC1 (stereo not drawn) [Naftopidil DiHCl] | 1.09 | 0.849
COc1ccccc1N1CCN(CC(O)COc2cccc3ccccc23)CC1 (stereo not drawn) [Naftopidil] | 0.964 | 0.76
O=C(O)CC[C@H]1CC[C@@](c2cc(F)ccc2F)(S(=O)(=O)c2ccc(Cl)cc2)CC1 | 1.07 | 0.905
C/C=C1\NC(=O)[C@H]2CSSCC/C=C/[C@H](CC(=O)N[C@H](C(C)C)C(=O)N2)OC(=O)[C@H](C(C)C)NC1=O [Romidepsin (FK228, Depsipeptide)] | 0.0685 | 0.0492
COc1cc(OC)c(C(=O)CCCN2CCCC2)c(OC)c1 [Buflomedil HCl] | 0.851 | 0.685
N#CC(c1ccc(Cl)cc1)c1c(Cl)cc(-n2ncc(=O)[nH]c2=O)cc1Cl (stereo not drawn) [Diclazuril] | 1.12 | 0.998
CCOc1ccc(Cc2cc([C@@H]3O[C@H](SC)[C@@H](O)[C@H](O)[C@H]3O)ccc2Cl)cc1 [Sotagliflozin (LX4211)] | 0.747 | 0.755
CC(C)(C)C(=O)OCOP(=O)(COCCn1cnc2c(N)ncnc21)OCOC(=O)C(C)(C)C [Adefovir Dipivoxil] | 0.824 | 0.652
COc1ccc(CCNCc2ccc(OCc3ccc(Cl)nc3)c(OC)c2)cc1OC | 1.04 | 0.914
CS(=O)(=O)CCNCc1ccc(-c2ccc3ncnc(Nc4ccc(OCc5cccc(F)c5)c(Cl)c4)c3c2)o1 | 1.05 | 0.369
C=CC(=O)Nc1cccc(Nc2nc(Nc3ccc(N4CCN(C(C)=O)CC4)cc3OC)ncc2C(F)(F)F)c1 | 0.781 | 0.431
Nc1c(Br)cc(Br)cc1CN[C@H]1CC[C@H](O)CC1 [Ambroxol HCl] | 1.05 | 0.837
Cn1ccnc1S [Methimazole] | 0.98 | 1.07
CC(C)(Sc1cc(C(C)(C)C)c(O)c(C(C)(C)C)c1)Sc1cc(C(C)(C)C)c(O)c(C(C)(C)C)c1 [Probucol] | 0.974 | 1.01
CCCCCCCc1ccc(CCc2cccc(O)c2C(=O)O)cc1 | 0.96 | 0.73
Cc1noc(C)c1-c1ccc(-c2cc(C(N)=O)c(NC(N)=O)s2)c(O[C@H]2CCNC2)c1 | 0.847 | 0.778
Cc1ccc([N+](=O)[O-])cc1S(=O)(=O)N(C)/N=C/c1cnc2ccc(Br)cn12 | 0.428 | 0.422
COc1ccc(-c2ccc3c(N4CCOCC4)nc(N4C[C@@H](C)O[C@@H](C)C4)nc3n2)cc1CO | 0.58 | 0.32
C/C(=C\c1ccc(C(=O)O)cc1)c1ccc2c(c1)C(C)(C)CCC2(C)C [TTNPB (Arotinoid Acid)] | 0.844 | 0.781
COc1cc(OC)c(/C=C/S(=O)(=O)Cc2ccc(OC)c(NCC(=O)O)c2)c(OC)c1 | 0.428 | 0.365
CN(C)[C@@H]1C(O)=C(C(N)=O)C(=O)[C@@]2(O)C(O)=C3C(=O)c4c(O)cccc4[C@@](C)(O)[C@H]3[C@H](O)[C@@H]12 [Oxytetracycline (Terramycin)] | 1.06 | 1.06

SMILES | fractional viability (2uM) | fractional viability (10uM)
CN(C)[C@@H]1C(O)=C(C(N)=O)C(=O)[C@@]2(O)C(O)=C3C(=O)c4c(O)cccc4[C@@](C)(O)[C@H]3[C@H](O)[C@@H]12 [Oxytetracycline Dihydrate] | 1.14 | 1.14
OC(CN1CCN(c2cccc(Cl)c2)CC1)C(c1ccccc1)c1ccccc1 (stereo not drawn) | 1.1 | 0.947
CC/C(=C(/CC)c1ccc(O)cc1)c1ccc(O)cc1 [Diethylstilbestrol] | 1.02 | 0.85
CC1=C(/C=C/C(C)=C/C=C/C(C)=C\C(=O)O)C(C)(C)CCC1 [Isotretinoin] | 0.872 | 0.747
NC(N)=Nc1nc(CSCC/C(N)=N/S(N)(=O)=O)cs1 [Famotidine] | 0.978 | 0.858
Nc1cc(F)ccc1NC(=O)/C=C/c1cnn(C/C=C/c2ccccc2)c1 | 0.912 | 0.802
CCOc1ccc2nc3cc(N)ccc3c(N)c2c1 [Ethacridine lactate monohydrate] | 0.729 | 0.356
CN(Cc1cnc2nc(N)nc(N)c2n1)c1ccc(C(=O)N[C@@H](CCC(=O)O)C(=O)O)cc1 [Methotrexate] | 0.66 | 0.651
COc1cc(C(C)=O)ccc1O [Apocynin] | 1.01 | 0.873
O=C(CCCCCCC(=O)Nc1ccc([C@H]2O[C@@H](CSc3nc(-c4ccccc4)c(-c4ccccc4)o3)C[C@@H](c3ccc(CO)cc3)O2)cc1)NO [Tubacin] | 1.06 | 0.628
C=CC(C)(C)c1cc(/C=C/C(=O)c2ccc(O)cc2)c(OC)cc1O [Licochalcone A] | 0.923 | 0.906
Cc1ncc(Cl)cc1NCc1ccc(C(=O)N[C@@H](CC2CCCC2)C(=O)NC2CC2)s1 | 0.99 | 0.922
CN1CCN(c2c(F)cc3c(=O)c(C(=O)O)cn4c3c2OCN4C)CC1 [Marbofloxacin] | 1.16 | 0.908
CCOC(=O)c1ccc(N)cc1 [Benzocaine] | 0.957 | 0.932
C[C@H]1[C@H](C)CC[C@]2(C(=O)O)CC[C@]3(C)C(=CC[C@@H]4[C@@]5(C)C[C@@H](O)[C@H](O)[C@@](C)(CO)[C@@H]5CC[C@]43C)[C@H]12 [Asiatic Acid] | 1.1 | 0.888
OC(CCCN1CCCCC1)(c1ccccc1)c1ccccc1 [Diphenidol HCl] | 0.958 | 0.834
CCN(CC)CCOC(=O)C(c1ccccc1)c1ccccc1 [Adiphenine HCl] | 0.994 | 0.932
CCCCCCCCCCCCc1ccc(S(=O)(=O)Nc2nncs2)cc1 | 1.06 | 1.05
c1cncc(CN2CCC(n3ncc4c(N5CCOCC5)nc(-c5ccc6[nH]ccc6c5)nc43)CC2)c1 | 0.74 | 0.373
COC1CCN(C(=O)c2cc(Cc3n[nH]c(=O)c4ccccc34)ccc2F)CC1 | 0.865 | 0.822
C=CC(=O)Nc1ccc(CN2C(=O)N(c3cc(OC)cc(OC)c3)Cc3cnc(Nc4ccc(N5CCN(C)CC5)cc4)nc32)cc1 | 1.03 | 0.15
Cn1cc(-c2ccncc2)c(-c2ccc(OCc3ccc4ccccc4n3)cc2)n1 | 1.19 | 1.19
O=C(O)[C@H]1O[C@@H](Oc2cc3oc(-c4ccccc4)cc(=O)c3c(O)c2O)[C@H](O)[C@@H](O)[C@@H]1O [Baicalin] | 0.776 | 0.933

SMILES | fractional viability (2uM) | fractional viability (10uM)
Cc1cc(C)c(S(=O)(=O)n2cc(C)cc2C)c(C)c1 | 0.79 | 0.706
Cc1[nH]c2ccccc2c1CCNCc1ccc(/C=C/C(=O)NO)cc1 [Panobinostat (LBH589)] | 0.207 | 0.183
Cc1nc(-c2cccnc2)sc1C(=O)Nc1ccccc1-c1cn2c(CN3CCOCC3)csc2n1 | 0.748 | 0.855
O=c1ccc2ccccc2o1 [Coumarin] | 0.843 | 0.858
Nc1nc(=S)c2ncn([C@H]3C[C@H](O)[C@@H](CO)O3)c2[nH]1 | 1.03 | 0.763
Nc1ccc(C(=O)Nc2cccc(-c3nc(N4CCOCC4)c4oc5ncccc5c4n3)c2)cn1 | 0.423 | 0.208
CN(C)CCCN1c2ccccc2Sc2ccc(Cl)cc21 [Chlorpromazine HCl] | 1.11 | 0.755
C[C@H](Nc1ncnc2[nH]cnc12)c1cc2ccc(F)cc2nc1-c1ccccn1 | 0.879 | 0.836
CCOc1ccccc1OC(c1ccccc1)C1CNCCO1 (stereo not drawn) [Reboxetine mesylate] | 1.17 | 0.888
O=c1[nH]cnc2c1ncn2[C@@H]1O[C@H](CO)[C@@H](O)[C@H]1O [Inosine] | 1.08 | 1.01
O=C1NC(=O)/C(=C/c2ccc3c(c2)OC(F)(F)O3)S1 | 0.902 | 0.926
COc1cc([C@@H]2c3cc4c(cc3[C@@H](O[C@@H]3O[C@@H]5CO[C@@H](c6cccs6)O[C@H]5[C@H](O)[C@H]3O)[C@H]3COC(=O)[C@H]23)OCO4)cc(OC)c1O [Teniposide] | 0.551 | 0.269
Cc1nc(Nc2ncc(C(=O)Nc3c(C)cccc3Cl)s2)cc(N2CCN(CCO)CC2)n1 [Dasatinib] | 0.862 | 0.783
CCN1CCN(Cc2ccc(-c3cc4c(N[C@H](C)c5ccccc5)ncnc4[nH]3)cc2)CC1 | 1.08 | 0.607
CCOC(=O)c1c(CSc2ccccc2)n(C)c2cc(Br)c(O)c(CN(C)C)c12 [Arbidol HCl] | 1.36 | 0.822
Cc1cc(Nc2nc(N[C@@H](C)c3ccc(F)cc3)c(C#N)cc2F)n[nH]1 | 0.704 | 0.641
Cc1nc(-c2ccc(OCC(C)C)c(C#N)c2)sc1C(=O)O [Febuxostat] | 1.2 | 0.93
COc1ccc(CC2c3cc(OC)c(OC)cc3CC[N+]2(C)CCC(=O)OCCCCCOC(=O)CC[N+]2(C)CCc3cc(OC)c(OC)cc3C2Cc2ccc(OC)c(OC)c2)cc1OC (stereo not drawn) [Atracurium Besylate] | 1.08 | 0.975
CC(=O)[C@H]1CC[C@H]2[C@@H]3CC=C4C[C@@H](O)CC[C@]4(C)[C@H]3CC[C@]12C [Pregnenolone] | 0.969 | 0.879
CN(C)c1ccc(C(=C2C=CC(=[N+](C)C)C=C2)c2ccc(N(C)C)cc2)cc1 [Crystal Violet] | 0.323 | 0.0953
CC(C(=O)O)c1ccc2c(c1)CC(=O)c1ccccc1S2 (stereo not drawn) [Zaltoprofen] | 1.02 | 0.944
Oc1cc2c(cc1O)[C@@H]1c3ccc(O)c(O)c3OC[C@]1(O)C2 [Hematoxylin] | 0.963 | 0.85
C=C1/C(=C\C=C2/CCC[C@]3(C)[C@@H]([C@H](C)/C=C/[C@H](C)C(C)C)CC[C@@H]23)C[C@@H](O)C[C@@H]1O [Doxercalciferol] | 1.05 | 0.787
